# Reference: the supplement of paper PMC8728848
# Some of the results follow.
# Tests used:
# Assay in all cases: glycan array binding signal (z-score within array); higher = stronger binding
# Conditions in all cases: glycan notation: IUPAC condensed, linker removed
# Gal(a1-3)Gal = molecular target: Gal(a1-3)Gal
# Outline: (§1)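 Glycan array data were curated from 3228 arrays in the Consortium for Functional Glycomics database and kept only where the protein sequence was available. Glycan names were converted to IUPAC-condensed notation, and columns mapping to the same glycan were averaged. The binding signal is a within-array Z-score, averaged across arrays of the same protein sequence at different concentrations or buffers and across linkers. Negative Z-scores can be read as non-binding.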
# Gal(a1-3)Gal(b1-3)Glc = molecular target: Gal(a1-3)Gal(b1-3)Glc
# Outline: as §1
# Gal(a1-3)Gal(b1-3)GlcNAc = molecular target: Gal(a1-3)Gal(b1-3)GlcNAc
# Outline: as §1
# [1] = molecular target: Gal(a1-3)Gal(b1-3)GlcNAc(b1-2)Man(a1-3)[Gal(a1-3)Gal(b1-3)GlcNAc(b1-2)Man(a1-6)]Man(b1-4)GlcNAc(b1-4)GlcNAc
# Outline: as §1
# [2] = molecular target: Gal(a1-3)Gal(b1-3)GlcNAc(b1-3)GalNAc
# Outline: as §1
# [3] = molecular target: Gal(a1-3)Gal(b1-3)[Fuc(a1-4)]GlcNAc(b1-2)Man(a1-3)[Gal(a1-3)Gal(b1-3)[Fuc(a1-4)]GlcNAc(b1-2)Man(a1-6)]Man(b1-4)GlcNAc(b1-4)GlcNAc
# Outline: as §1
# Gal(a1-3)Gal(b1-4)Glc = molecular target: Gal(a1-3)Gal(b1-4)Glc
# Outline: as §1
# Gal(a1-3)Gal(b1-4)GlcNAc = molecular target: Gal(a1-3)Gal(b1-4)GlcNAc
# Outline: as §1
# [4] = molecular target: Gal(a1-3)Gal(b1-4)GlcNAc(b1-3)GalNAc
# Outline: as §1
# [5] = molecular target: Gal(a1-3)Gal(b1-4)[Fuc(a1-3)]GalNAc
# Outline: as §1
# [6] = molecular target: Gal(a1-3)Gal(b1-4)[Fuc(a1-3)]GlcNAc
# Outline: as §1
# [7] = molecular target: Gal(a1-3)Gal(b1-4)[Fuc(a1-3)]GlcNAc(b1-2)Man(a1-3)[Gal(a1-3)Gal(b1-4)[Fuc(a1-3)]GlcNAc(b1-2)Man(a1-6)]Man(b1-4)GlcNAc(b1-4)GlcNAc
# Outline: as §1
# Gal(a1-3)GalNAc = molecular target: Gal(a1-3)GalNAc
# Outline: as §1
# Gal(a1-3)GlcNAc = molecular target: Gal(a1-3)GlcNAc
# Outline: as §1
# [8] = molecular target: Gal(a1-3)[Gal(a1-4)]Gal(b1-4)GlcNAc
# Outline: as §1
# [9] = molecular target: Gal(a1-4)Gal(b1-3)GlcNAc(b1-2)Man(a1-3)[Gal(a1-4)Gal(b1-3)GlcNAc(b1-2)Man(a1-6)]Man(b1-4)GlcNAc(b1-4)GlcNAc
# Outline: as §1
# Gal(a1-4)Gal(b1-4)Gal = molecular target: Gal(a1-4)Gal(b1-4)Gal
# Outline: as §1
# Gal(a1-4)Gal(b1-4)GalNAc = molecular target: Gal(a1-4)Gal(b1-4)GalNAc
# Outline: as §1
# Gal(a1-4)Gal(b1-4)Glc = molecular target: Gal(a1-4)Gal(b1-4)Glc
# Outline: as §1
# Gal(a1-4)Gal(b1-4)GlcNAc = molecular target: Gal(a1-4)Gal(b1-4)GlcNAc
# Outline: as §1
# [10] = molecular target: Gal(a1-4)Gal(b1-4)GlcNAc(b1-2)Man(a1-3)[Gal(a1-4)Gal(b1-4)GlcNAc(b1-2)Man(a1-6)]Man(b1-4)GlcNAc(b1-4)GlcNAc
# Outline: as §1
# [11] = molecular target: Gal(a1-4)Gal(b1-4)GlcNAc(b1-3)Gal(b1-4)Glc
# Outline: as §1
# Gal(a1-4)GlcNAc = molecular target: Gal(a1-4)GlcNAc
# Outline: as §1
# Gal(a1-6)Glc = molecular target: Gal(a1-6)Glc
# Outline: as §1
# Gal(b1-2)Gal = molecular target: Gal(b1-2)Gal
# Outline: as §1
# Gal(b1-3)Gal = molecular target: Gal(b1-3)Gal
# Outline: as §1
# Gal(b1-3)Gal(b1-4)GlcNAc = molecular target: Gal(b1-3)Gal(b1-4)GlcNAc
# Outline: as §1
# [12] = molecular target: Gal(b1-3)Gal(b1-4)GlcNAc(b1-2)Man(a1-3)[Gal(b1-3)Gal(b1-4)GlcNAc(b1-2)Man(a1-6)]Man(b1-4)GlcNAc(b1-4)GlcNAc
# Outline: as §1
# Gal(b1-3)GalNAc = molecular target: Gal(b1-3)GalNAc
# Outline: as §1
# [13] = molecular target: Gal(b1-3)GalNAc(a1-3)[Fuc(a1-2)]Gal(b1-4)Glc
# Outline: as §1
# [14] = molecular target: Gal(b1-3)GalNAc(a1-3)[Fuc(a1-2)]Gal(b1-4)GlcNAc
# Outline: as §1
# [15] = molecular target: Gal(b1-3)GalNAc(b1-3)Gal(a1-4)Gal(b1-4)Glc
# Outline: as §1
# [16] = molecular target: Gal(b1-3)GalNAc(b1-3)Gal(b1-4)Glc
# Outline: as §1
# [17] = molecular target: Gal(b1-3)GalNAc(b1-3)Gal(b1-4)GlcNAc
# Outline: as §1
# [18] = molecular target: Gal(b1-3)GalNAc(b1-4)Gal(b1-4)Glc
# Outline: as §1
# [19] = molecular target: Gal(b1-3)GalNAc(b1-4)[Neu5Ac(a2-3)]Gal(b1-4)Glc
# Outline: as §1
# Gal(b1-3)GlcNAc = molecular target: Gal(b1-3)GlcNAc
# Outline: as §1
binder,measurement,setting,value
"AAL (Aleuria aurantia), P18891 (protein) PTEFLYTSKIAAISWAATGGRQQRVYFQDLNGKIREAQRGGDNPWTGGSSQNVIGEAKLFSPLAAVTWKSAQGIQIRVYCVNKDNILSEFVYDGSKWITGQLGSVGVKVGSNSKLAALQWGGSESAPPNIRVYYQKSNGSGSSIHEYVWSGKWTAGASFGSTVPGTGIGATAIGPGRLRIYYQATDNKIREHCWDSNSWYVGGFSASASAGVSIAAISWGSTPNIRVYWQKGREELYEAAYGGSWNTPGQIKDASRPTPSLPDTFIAANSSGNIDISVFFQASGVSLQQWQWISGKGWSIGAVVPTGTPAGW",glycan array binding signal (z-score),Gal(a1-3)Gal,-0.51
same,glycan array binding signal (z-score),Gal(a1-3)Gal(b1-3)Glc,-0.578
same,glycan array binding signal (z-score),Gal(a1-3)Gal(b1-3)GlcNAc,-0.507
same,glycan array binding signal (z-score),[1],-0.415
same,glycan array binding signal (z-score),[2],-0.398
same,glycan array binding signal (z-score),[3],-0.419
same,glycan array binding signal (z-score),Gal(a1-3)Gal(b1-4)Glc,-0.474
same,glycan array binding signal (z-score),Gal(a1-3)Gal(b1-4)GlcNAc,-0.517
same,glycan array binding signal (z-score),[4],-0.439
same,glycan array binding signal (z-score),[5],2.52
same,glycan array binding signal (z-score),[6],1.32
same,glycan array binding signal (z-score),[7],0.279
same,glycan array binding signal (z-score),Gal(a1-3)GalNAc,-0.462
same,glycan array binding signal (z-score),Gal(a1-3)GlcNAc,-0.624
same,glycan array binding signal (z-score),[8],-0.501
same,glycan array binding signal (z-score),[9],-0.418
same,glycan array binding signal (z-score),Gal(a1-4)Gal(b1-4)Gal,-0.611
same,glycan array binding signal (z-score),Gal(a1-4)Gal(b1-4)GalNAc,-0.646
same,glycan array binding signal (z-score),Gal(a1-4)Gal(b1-4)Glc,-0.488
same,glycan array binding signal (z-score),Gal(a1-4)Gal(b1-4)GlcNAc,-0.472
same,glycan array binding signal (z-score),[10],-0.43
same,glycan array binding signal (z-score),[11],-0.418
same,glycan array binding signal (z-score),Gal(a1-4)GlcNAc,-0.498
same,glycan array binding signal (z-score),Gal(a1-6)Glc,-0.515
same,glycan array binding signal (z-score),Gal(b1-2)Gal,-0.493
same,glycan array binding signal (z-score),Gal(b1-3)Gal,-0.522
same,glycan array binding signal (z-score),Gal(b1-3)Gal(b1-4)GlcNAc,-0.411
same,glycan array binding signal (z-score),[12],-0.353
same,glycan array binding signal (z-score),Gal(b1-3)GalNAc,-0.481
same,glycan array binding signal (z-score),[13],-0.418
same,glycan array binding signal (z-score),[14],-0.421
same,glycan array binding signal (z-score),[15],-0.514
same,glycan array binding signal (z-score),[16],-0.595
same,glycan array binding signal (z-score),[17],-0.602
same,glycan array binding signal (z-score),[18],-0.504
same,glycan array binding signal (z-score),[19],-0.511
same,glycan array binding signal (z-score),Gal(b1-3)GlcNAc,-0.476
